110 sequences from paper PMC6212790 can be followed below.

The other results are listed elsewhere or left out. At the low end of the ranking, values are background and their order means little.

This assay concerns the target T1, GST-Rok-C97-191 (UniProt O34857).
T1 sequence: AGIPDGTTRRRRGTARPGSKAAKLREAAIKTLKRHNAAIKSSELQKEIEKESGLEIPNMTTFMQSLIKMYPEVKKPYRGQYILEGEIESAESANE
The assay can be described thus: protein binding microarray.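 Further: rank score from −0.5 (least bound) to 0.5 (best bound).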 The following applies: Rok is a gene silencer of Bacillus subtilis; high values mean tight binding; most listed sequences are background and not binding sites; double strand, one strand shown.
The sequence ACTGTACG gave a binding signal of 0.223 E-score.

The sequence ATACGATA had a binding signal of 0.316 E-score. In turn, CCTTAGAA gave a binding signal of 0.0764 E-score. Next, CACGTCGA: 0.183 E-score; ACTAGAAG: 0.199 E-score; GGAAGCCA: -0.199 E-score.

Sequence CTATCGGA yielded a binding signal of 0.148 E-score. Sequence AACGTGGT gave a binding signal of 0.174 E-score. In the case of AGGGGAAG, the binding signal is -0.268 E-score. To ACAGGCCG belongs -0.175 E-score. Next, CGTCACTA: 0.137 E-score; AGGTCCTA: -0.0587 E-score.

Turning to CCCTTGTA, the binding signal was 0.18 E-score. Consider CAATTATA, for which the binding signal turned out to be 0.291 E-score.

In the case of AAAGTATA, the binding signal is 0.276 E-score.

Take TGCAACAA: the binding signal amounted to 0.0865 E-score.

For CAGCTAAG, the binding signal was -0.101 E-score.

Sequence ATGTTACC had a binding signal of 0.207 E-score. Take ACTTACGG: the binding signal stood at 0.0959 E-score. In turn, TTCGGAAA showed a binding signal of -0.0109 E-score.

Sequence ACTGCGAA registered a binding signal of -0.0463 E-score. CTGGATAC showed a binding signal of -0.0748 E-score. Take AAACAATT: the binding signal came out at 0.15 E-score. As for GACGGAGA, the binding signal was -0.222 E-score. As to CGCGTTGA, the binding signal was -0.0143 E-score. CCCGTCCA showed a binding signal of -0.05 E-score. In turn, ACGGATAG had a binding signal of 0.0351 E-score. For ATCCACTG, the binding signal is -0.124 E-score. In turn, TGCACGCA gave a binding signal of -0.0836 E-score.

In the case of CCATATCG, the binding signal was 0.058 E-score. With GTTTTCTA, the binding signal amounted to 0.256 E-score. The sequence ACATGTAA yielded a binding signal of 0.267 E-score. On to GACATAAA, for which the binding signal amounted to 0.101 E-score. GAGTCGGC came in with a binding signal of -0.0688 E-score.

CTGCCGCA returned a binding signal of -0.198 E-score. Regarding CCTGCGTC, the binding signal was -0.298 E-score.

As for AGCGGACT, the binding signal is -0.116 E-score. The sequence GTCTGGGA yielded a binding signal of -0.196 E-score. Regarding CTAGTGGA, the binding signal is -0.0698 E-score. In turn, CGGGTCTA showed a binding signal of -0.111 E-score. CCAGAAAA had a binding signal of -0.0785 E-score. To GAAAGAGC belongs -0.143 E-score; to GAAAGCTA, 0.153 E-score; to GGATCTAA, -0.102 E-score. To CTTCAGCC belongs -0.152 E-score; to CCATAAAA, 0.0544 E-score; to GCGAGAAA, 0.0902 E-score. Regarding AGTGCCGG, the binding signal is -0.0114 E-score. To ATTTATGC belongs 0.0496 E-score; to ACAGGGGC, -0.169 E-score. For the sequence CTAGCCTA, the binding signal is -0.0726 E-score. Take AACGCTAG: the binding signal was determined as 0.0384 E-score. For ATCGGCAG, the binding signal is -0.247 E-score.

As to CATACGCC, the binding signal is -0.0104 E-score. As to CATGAATA, the binding signal is 0.157 E-score. For TCCCGCGA, the binding signal was -0.171 E-score. Next, CCCTACGC: -0.276 E-score; AATAATAT: 0.321 E-score.

GGTCAGGA had a binding signal of -0.126 E-score. To ACAGACGC belongs -0.0889 E-score. Sequence CATGTAGA registered a binding signal of 0.327 E-score. ACGGAGTG displayed a binding signal of -0.196 E-score.

In the case of ACGTCGCC, the binding signal came to 0.108 E-score. The sequence GAGGAGAA displayed a binding signal of -0.0778 E-score. In turn, GGCTCCCC came in with a binding signal of -0.463 E-score. CATGGCGC: the binding signal was -0.201 E-score.

The sequence GCATCTTA returned a binding signal of 0.0301 E-score. As to ATGCAACG, the binding signal was 0.0852 E-score. Next, AAAATGGG: 0.115 E-score.

In turn, GCCCTTAA came in with a binding signal of 0.00698 E-score. Next, GTGTGAAC: -0.0488 E-score; GGCAGTTA: 0.0872 E-score; ATGACTGG: -0.156 E-score.

In the case of CAAGGGCA, the binding signal is -0.232 E-score. Take CCGTCGCG: the binding signal is -0.201 E-score. As to TAAGGTAA, the binding signal is -0.00793 E-score. Consider GTGAGTTA, for which the binding signal was 0.202 E-score.

Sequence TATAAGCA displayed a binding signal of 0.215 E-score. Regarding ATAGAGAA, the binding signal was 0.217 E-score. In the case of AATTATCT, the binding signal came to 0.285 E-score.

For CGGGGCTC, the binding signal was -0.279 E-score.

In the case of TGACTCAA, the binding signal is -0.0153 E-score.

For CTTAAAAG, the binding signal was -0.15 E-score.

For AGTGAAAT, the binding signal amounted to 0.0143 E-score.

Turning to ATAGAGTA, the binding signal stood at 0.203 E-score. ATCGTTTC had a binding signal of 0.0652 E-score. CTCTGCAC: the binding signal is -0.254 E-score. To GTTAACAA belongs 0.271 E-score; to TGCCACAA, -0.0432 E-score. Turning to AAATAGAA, the binding signal worked out at 0.36 E-score. On to CCGGTCGC, for which the binding signal was -0.341 E-score. Sequence CCAAGCAG showed a binding signal of -0.155 E-score. The sequence CTATTATC gave a binding signal of 0.211 E-score. On to CCAACAGG, for which the binding signal is -0.251 E-score. AGCGGCCC: the binding signal was -0.369 E-score.

As for CAAAACTG, the binding signal is -0.244 E-score.

As to ACTGCATG, the binding signal was -0.00855 E-score.

In the case of CCCGAAGA, the binding signal was 0.0539 E-score. To CTGTCCGC belongs -0.184 E-score; to AGCCAAAG, -0.388 E-score; to AAGAGATC, -0.203 E-score. In the case of GAAGAAGA, the binding signal was -0.122 E-score. Next, CCACCATA: 0.0786 E-score. As to ACCGGGGA, the binding signal is -0.0231 E-score. The sequence CACGCTGG showed a binding signal of -0.173 E-score. Next, GTCCCTCA: -0.284 E-score; CCGACTAA: 0.114 E-score. In the case of GGCGGTCA, the binding signal was -0.194 E-score.

In turn, GTATCTCA gave a binding signal of 0.135 E-score. Next, TCCTCAGA: -0.0154 E-score.
